The text below walks through data of PMC9911399, “Two distinct binding modes provide the RNA-binding protein RbFox with extraordinary sequence specificity”.

Changes are numbered by the printed parent chain; changes in the protein carry UniProt numbers. The list shows a part of the results.

Sequences and labels used below:
T1: RBFOX1 RRM (Homo sapiens, UniProt Q9NWB1 109-208)
T1 sequence: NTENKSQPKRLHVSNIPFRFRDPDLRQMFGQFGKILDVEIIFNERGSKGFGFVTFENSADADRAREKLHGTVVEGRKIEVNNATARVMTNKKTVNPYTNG

B1: CCAGAAA (DNA:RNA)
RNA: GGGAGACCGGAAUUCAGAUUGUCCCCAGAAAUUAAAUCCCGUCGUAGCCACCA
DNA 1: CAATCTGAATTCCGGTCTCCC
DNA 2: TGGTGGCTACGACGGGATT
B2: UGGGAAC (DNA:RNA)
RNA: B1 RNA with C25U, C26G, A27G, A31C
DNA 1: CAATCTGAATTCCGGTCTCCC
DNA 2: TGGTGGCTACGACGGGATT
B3: GAGUACC (DNA:RNA)
RNA: B1 RNA with C25G, C26A, A27G, G28U, A30C, A31C
DNA 1: CAATCTGAATTCCGGTCTCCC
DNA 2: TGGTGGCTACGACGGGATT
B4: ACUCGCG (DNA:RNA)
RNA: B1 RNA with C25A, A27U, G28C, A29G, A30C, A31G
DNA 1: CAATCTGAATTCCGGTCTCCC
DNA 2: TGGTGGCTACGACGGGATT
B5: UGUCAGA (DNA:RNA)
RNA: B1 RNA with C25U, C26G, A27U, G28C, A30G
DNA 1: CAATCTGAATTCCGGTCTCCC
DNA 2: TGGTGGCTACGACGGGATT
B6: UUCCUGA (DNA:RNA)
RNA: B1 RNA with C25U, C26U, A27C, G28C, A29U, A30G
DNA 1: CAATCTGAATTCCGGTCTCCC
DNA 2: TGGTGGCTACGACGGGATT
B7: GGCGGAG (DNA:RNA)
RNA: B1 RNA with C25G, C26G, A27C, A29G, A31G
DNA 1: CAATCTGAATTCCGGTCTCCC
DNA 2: TGGTGGCTACGACGGGATT
B8: AGUCUGC (DNA:RNA)
RNA: GGGAGACCGGAAUUCAGAUUGUCCAGUCUGCUUAAAUCCCGUCGUAGCCACCA
DNA 1: CAATCTGAATTCCGGTCTCCC
DNA 2: TGGTGGCTACGACGGGATT
B9: CUCGUCC (DNA:RNA)
RNA: B8 RNA with A25C, G26U, U27C, C28G, G30C
DNA 1: CAATCTGAATTCCGGTCTCCC
DNA 2: TGGTGGCTACGACGGGATT
B10: CGUUCCG (DNA:RNA)
RNA: B8 RNA with A25C, C28U, U29C, G30C, C31G
DNA 1: CAATCTGAATTCCGGTCTCCC
DNA 2: TGGTGGCTACGACGGGATT
B11: UCAGUGC (DNA:RNA)
RNA: B8 RNA with A25U, G26C, U27A, C28G
DNA 1: CAATCTGAATTCCGGTCTCCC
DNA 2: TGGTGGCTACGACGGGATT
B12: UACAAGA (DNA:RNA)
RNA: B1 RNA with C25U, C26A, A27C, G28A, A30G
DNA 1: CAATCTGAATTCCGGTCTCCC
DNA 2: TGGTGGCTACGACGGGATT
B13: GAUCGAA (DNA:RNA)
RNA: B8 RNA with A25G, G26A, U29G, G30A, C31A
DNA 1: CAATCTGAATTCCGGTCTCCC
DNA 2: TGGTGGCTACGACGGGATT
B14: ACUGUAG (DNA:RNA)
RNA: B8 RNA with G26C, C28G, G30A, C31G
DNA 1: CAATCTGAATTCCGGTCTCCC
DNA 2: TGGTGGCTACGACGGGATT
B15: UUGUCCA (DNA:RNA)
RNA: B1 RNA with C25U, C26U, A27G, G28U, A29C, A30C
DNA 1: CAATCTGAATTCCGGTCTCCC
DNA 2: TGGTGGCTACGACGGGATT
B16: CAACCCG (DNA:RNA)
RNA: B1 RNA with C26A, G28C, A29C, A30C, A31G
DNA 1: CAATCTGAATTCCGGTCTCCC
DNA 2: TGGTGGCTACGACGGGATT
B17: UAAGGGC (DNA:RNA)
RNA: B8 RNA with A25U, G26A, U27A, C28G, U29G
DNA 1: CAATCTGAATTCCGGTCTCCC
DNA 2: TGGTGGCTACGACGGGATT
B18: UAAGUUA (DNA:RNA)
RNA: B1 RNA with C25U, C26A, A29U, A30U
DNA 1: CAATCTGAATTCCGGTCTCCC
DNA 2: TGGTGGCTACGACGGGATT
B19: UAAAUGG (DNA:RNA)
RNA: B8 RNA with A25U, G26A, U27A, C28A, C31G
DNA 1: CAATCTGAATTCCGGTCTCCC
DNA 2: TGGTGGCTACGACGGGATT
B20: ACGGUAC (DNA:RNA)
RNA: B8 RNA with G26C, U27G, C28G, G30A
DNA 1: CAATCTGAATTCCGGTCTCCC
DNA 2: TGGTGGCTACGACGGGATT
B21: AGCGAUC (DNA:RNA)
RNA: B8 RNA with U27C, C28G, U29A, G30U
DNA 1: CAATCTGAATTCCGGTCTCCC
DNA 2: TGGTGGCTACGACGGGATT
B22: UCUUAGC (DNA:RNA)
RNA: B8 RNA with A25U, G26C, C28U, U29A
DNA 1: CAATCTGAATTCCGGTCTCCC
DNA 2: TGGTGGCTACGACGGGATT
B23: CUGGUAA (DNA:RNA)
RNA: B1 RNA with C26U, A27G, A29U
DNA 1: CAATCTGAATTCCGGTCTCCC
DNA 2: TGGTGGCTACGACGGGATT
B24: CUAGACC (DNA:RNA)
RNA: B1 RNA with C26U, A30C, A31C
DNA 1: CAATCTGAATTCCGGTCTCCC
DNA 2: TGGTGGCTACGACGGGATT
B25: GCCUGAG (DNA:RNA)
RNA: B1 RNA with C25G, A27C, G28U, A29G, A31G
DNA 1: CAATCTGAATTCCGGTCTCCC
DNA 2: TGGTGGCTACGACGGGATT
B26: GUUGGAA (DNA:RNA)
RNA: B1 RNA with C25G, C26U, A27U, A29G
DNA 1: CAATCTGAATTCCGGTCTCCC
DNA 2: TGGTGGCTACGACGGGATT
B27: AUGACAC (DNA:RNA)
RNA: B8 RNA with G26U, U27G, C28A, U29C, G30A
DNA 1: CAATCTGAATTCCGGTCTCCC
DNA 2: TGGTGGCTACGACGGGATT
B28: ACCGAGG (DNA:RNA)
RNA: B1 RNA with C25A, A27C, A30G, A31G
DNA 1: CAATCTGAATTCCGGTCTCCC
DNA 2: TGGTGGCTACGACGGGATT
B29: UAUUAUA (DNA:RNA)
RNA: B1 RNA with C25U, C26A, A27U, G28U, A30U
DNA 1: CAATCTGAATTCCGGTCTCCC
DNA 2: TGGTGGCTACGACGGGATT
B30: UGCUUAG (DNA:RNA)
RNA: B8 RNA with A25U, U27C, C28U, G30A, C31G
DNA 1: CAATCTGAATTCCGGTCTCCC
DNA 2: TGGTGGCTACGACGGGATT
B31: CGUCCGA (DNA:RNA)
RNA: B8 RNA with A25C, U29C, C31A
DNA 1: CAATCTGAATTCCGGTCTCCC
DNA 2: TGGTGGCTACGACGGGATT

This test has as its target T1, RBFOX1 RRM. Kind of test: EMSA; HiTS-Eq, 1 nM pool, 10 min; buffer printed only for the single-RNA assays: 10 mM Tris pH 7.5, 150 mM NaCl, 3.4 mM EDTA, 0.001% NP-40, 30 C. The following applies: tags: His6 N-terminal (pET28a); label: 5' 32P. The method, boiled down: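 Purified RbFox RRM, wild type or mutant, was incubated for 10 min in 50 µL with 1 nM of a 5′-radiolabelled RNA pool carrying 7 randomized nucleotides, whose flanks were annealed to DNA oligonucleotides, over a series of increasing protein concentrations. Unbound RNA was resolved on 8% native PAGE, cut out, reverse-transcribed, barcoded by PCR and sequenced on an Illumina HiSeq 2500. Relative association constants were derived from changes in read counts for each RNA species versus the control reaction and normalised to the cognate motif.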
Background: Mobility shift assays separate free from complexed probe on a gel.
With B1, the binding signal was 0.00434 KA relative to UGCAUGU. With B2 the figure was 0.03 KA relative to UGCAUGU. As for B3, the figure is 0.0102 KA relative to UGCAUGU; as for B4, 0.00699 KA relative to UGCAUGU. Consider B5, for which the binding signal was 0.0175 KA relative to UGCAUGU. With B6 the figure was 0.0194 KA relative to UGCAUGU; with B7, 0.0171 KA relative to UGCAUGU; with B8, 0.0172 KA relative to UGCAUGU. With B9 the figure was 0.00629 KA relative to UGCAUGU; with B10, 0.0138 KA relative to UGCAUGU.

Turning to B11, the binding signal is 0.018 KA relative to UGCAUGU. In the case of B12, the binding signal was 0.0052 KA relative to UGCAUGU. With B13 the figure was 0.0122 KA relative to UGCAUGU; with B14, 0.0082 KA relative to UGCAUGU; with B15, 0.0104 KA relative to UGCAUGU.

B16: the binding signal was 0.00119 KA relative to UGCAUGU.

Regarding B17, the binding signal was 0.00505 KA relative to UGCAUGU.

Turning to B18, the binding signal is 0.00854 KA relative to UGCAUGU. With B19 the figure was 0.00549 KA relative to UGCAUGU; with B20, 0.00977 KA relative to UGCAUGU; with B21, 0.0116 KA relative to UGCAUGU.

For the molecule B22, the binding signal was 0.00933 KA relative to UGCAUGU. With B23 the figure was 0.0159 KA relative to UGCAUGU; with B24, 0.00604 KA relative to UGCAUGU; with B25, 0.0282 KA relative to UGCAUGU. As for B26, the figure is 0.0125 KA relative to UGCAUGU; as for B27, 0.00299 KA relative to UGCAUGU; as for B28, 0.0104 KA relative to UGCAUGU. As for B29, the figure is 0.00523 KA relative to UGCAUGU; as for B30, 0.0271 KA relative to UGCAUGU. In the case of B31, the binding signal was 0.0156 KA relative to UGCAUGU.
